Values marked as one replicate rest on one cluster of the flow cell; about a third of the high ones do not repeat.
tested on: ATP; assay: switch fluorescence ratio, 500 uM ATP over buffer (Cy3 cluster intensity, sum of 5 cycles each) (fold (ratio)); higher = stronger signal-on switching upon ATP binding; sequences stand for … in TCGTCGGCAGCGTCAGATGTGTATAAGAGACAGTTTTTTTTTTTTTTTTTTTTTTTTT…TC; settings: aptamer strand: ATP DNA aptamer (quencher-CACCTGGGGGAGTATTGCGGAGGAAGG + anchor), 100 nM annealed; ATP concentration: 500 uM; one replicate
Outline: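 For every switch-domain sequence, the fluorescence ratio is the mean of per-cluster values, each being summed target-cycle Cy3 intensity over summed buffer-cycle Cy3 intensity. Clusters outside 100-1000 RFU were excluded. On a modified Illumina MiSeq flow-cell, the Cy3-labelled switching-strand clusters were annealed to 100 nM quencher-labelled ATP aptamer, imaged in selection buffer and then after 15 min with 500 uM ATP at 22 °C. Five such cycles were run, with NaOH stripping and re-annealing between them.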
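Also: ATP exposure 15 min at 22 °C before imaging.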

Sequence	switch fluorescence ratio
TCGCTATATG	1.27
TCGCTTGATA	0.983
TCGCTTGTCC	1.05
TCGGAACCGA	1.01
TCGGAATTCA	1.04
TCGGACATAC	3.5
TCGGACCTCC	1.3
TCGGACGGA	1.1
TCGGAGACT	1.02
TCGGAGAGAT	1.09
TCGGAGGACC	1.04
TCGGATACGT	1.01
TCGGATAGTT	1.01
TCGGCAACCC	1.57
TCGGCAACTT	1.03
TCGGCATGTC	1.11
TCGGCGGTG	0.996
TCGGCGTCGT	1.06
TCGGGAGATC	0.981
TCGGGATGGG	1
TCGGGCATAC	6.13
TCGGGGCAC	0.993
TCGGGGGACC	1.01
TCGGGTAACT	1.02
TCGGTAGAAC	1.01

Sequence	switch fluorescence ratio
TCGGTATTCG	0.943
TCGGTCAAAC	1.18
TCGGTTAGGG	1.07
TCGGTTGGA	0.979
TCGTAAGCGA	1.18
TCGTAAGCGG	0.951
TCGTAGCGGG	0.966
TCGTATATGG	1.03
TCGTATCTTG	0.974
TCGTATGACT	0.967
TCGTATGCTA	0.954
TCGTCAGCGC	1.18
TCGTCATATT	1.03
TCGTCCTTGG	1.14
TCGTCGAGGG	1
TCGTCGGCAG	1.05
TCGTCGGGGG	1
TCGTCTCAGG	1
TCGTGAGCTT	1.05
TCGTGATGTT	1.03
TCGTGGCCGC	1.22
TCGTGGGAA	0.971
TCGTGGGGG	1.06
TCGTGGGTTG	1.03
TCGTGTAGAT	1.09

Sequence	switch fluorescence ratio
TCGTGTCCCG	1.01
TCGTTAAGT	0.97
TCGTTAAGTA	0.929
TCGTTCGCGA	2.57
TCGTTCGGGC	1.07
TCGTTCGTCA	0.997
TCGTTGCGTA	0.962
TCGTTGGGT	1.04
TCGTTTAATG	1.01
TCGTTTAGCT	1.01
TCGTTTGATC	1.01
TCGTTTGTGA	1.04
TCGTTTGTTC	1.04
TCTAAAGTAG	0.993
TCTAATCTAG	0.987
TCTACATAAG	1
TCTACATTTT	0.985
TCTACCACTA	0.987
TCTACGATGA	1.05
TCTACGGCAG	1.07
TCTACTTGTT	1.05
TCTAGAAATG	0.986
TCTAGACTGT	1.02
TCTAGATA	1
TCTAGCAGAC	3.07

Sequence	switch fluorescence ratio
TCTAGTTTAA	1.01
TCTATACAC	1.07
TCTATAGCGA	1.74
TCTATAGTGT	0.968
TCTATCACAG	0.973
TCTATCATAC	1.18
TCTATCGGGT	0.964
TCTATGGGTA	1.02
TCTATGGTA	0.984
TCTCAACCGT	1.35
TCTCAAGTAT	1
TCTCATGGCT	0.983
TCTCCAACTC	1.61
TCTCCCAATT	5.44
TCTCCCCGCT	1.95
TCTCCGAGCG	1.52
TCTCCGTAGG	1.22
TCTCCGTTAT	1.72
TCTCCTGAGG	1.01
TCTCGAGCTT	1.13
TCTCGATATG	1.01
TCTCGATGTA	0.975
TCTCGCTATG	1.11
TCTCGGAAAC	1.29
TCTCGGATTA	1.03
